# Single values of this set are uncertain.
# B1: Ydj1; a variant is named by its letters at X, in order (parent)
# chain: MVKETKFYDILGVPVTATDVEIKKAYRKCALKYHPDKNPSEEAAEKFKEASAAYEILSDPEKRDIYDQFGEDGLSGAGGAGGFPGGGFGFGDDIFSQFFGAGGAQRPRGPQRGKDIKHEISASLEELYKGRTAKLALNKQILCKECEGRGGKKGAVKKCTSCNGQGIKFVTRQMGPMIQRFQTECDVCHGTGDIIDPKDRCKSCNGKKVENERKILEVHVEPGMKDGQRIVFKGEADQAPDVIPGDVVFIVSERPHKSFKRDGDDLVYEAEIDLLTAIAGGEFALEHVSGDWLKVGIVPGEVIAPGMRKVIEGKGMPIPKYGGYGNLIIKFTIKFPENHFTSEENLKKLEEILPPRIVPAIPKKATVDECVLADFDPAKYNRTRASRGGANYDSDEEEQGGEGVQCXXX
# Variants of: B1
# Assay: enrichment factor, frequency at 37 °C / frequency at 25 °C (thermotolerance selection) (ratio); higher = more growth at 37 °C, higher likelihood of farnesylation
# Conditions: with Saccharomyces cerevisiae ydj1Δ (yWS304); selective temperature 37 °C; reference temperature 25 °C
row,Variant,enrichment factor
1,PPD,0.513
2,QPD,1.31
3,RPD,1.85
4,SPD,1.34
5,CPD,1.83
6,TPD,1.82
7,VPD,1.92
8,WPD,2.29
9,YPD,0.914
10,DPE,0.178
11,EPE,0.249
12,FPE,0.24
13,GPE,0.166
14,APE,0.495
15,HPE,0.257
16,IPE,0.808
17,KPE,0.381
18,LPE,0.263
19,MPE,0.313
20,NPE,0.219
21,PPE,0.127
22,QPE,0.187
23,RPE,0.788
24,SPE,0.433

row,Variant,enrichment factor
1,CPE,0.472
2,TPE,0.822
3,VPE,0.616
4,WPE,1.58
5,YPE,0.15
6,DPF,1.77
7,EPF,1.22
8,FPF,1.85
9,GPF,2.05
10,APF,0.957
11,HPF,1.53
12,IPF,3.24
13,KPF,1.57
14,LPF,2.1
15,MPF,0.842
16,NPF,0.989
17,PPF,1.22
18,QPF,1.78
19,RPF,0.985
20,SPF,1.08
21,CPF,0.651
22,TPF,1.99
23,VPF,2.32
24,WPF,0.913

row,Variant,enrichment factor
1,YPF,1.08
2,DPG,0.777
3,EPG,0.961
4,FPG,1.51
5,GPG,0.967
6,APG,2.73
7,HPG,2.58
8,IPG,1.75
9,KPG,2
10,LPG,1.58
11,MPG,2.66
12,NPG,1.56
13,PPG,1.74
14,QPG,2.18
15,RPG,1.73
16,SPG,3.77
17,CPG,2.7
18,TPG,1.46
19,VPG,2.16
20,WPG,1.1
21,YPG,2.28
22,DPH,0.18
23,EPH,0.3
24,FPH,1.22

row,Variant,enrichment factor
1,GPH,0.211
2,APH,1.47
3,HPH,1.44
4,IPH,1.79
5,KPH,1.43
6,LPH,2.04
7,MPH,1.27
8,NPH,1.42
9,PPH,1.14
10,QPH,1.78
11,RPH,1.45
12,SPH,1.87
13,CPH,1.84
14,TPH,1.79
15,VPH,1.83
16,WPH,1.52
17,YPH,0.984
18,DPI,0.639
19,EPI,1.48
20,FPI,2.53
21,GPI,1.59
22,API,1.71
23,HPI,1.84
24,IPI,3.01

row,Variant,enrichment factor
1,KPI,1.44
2,LPI,1.59
3,MPI,2
4,NPI,1.86
5,PPI,1.35
6,QPI,2.08
7,RPI,1.39
8,SPI,1.75
9,CPI,0.392
10,TPI,1.7
11,VPI,2.37
12,WPI,1.07
13,YPI,2.26
14,DPK,0.198
15,EPK,0.0902
16,FPK,0.192
17,GPK,0.0862
18,APK,0.144
19,HPK,0.2
20,IPK,0.084
21,KPK,0.127
22,LPK,0.225
23,MPK,0.245
24,NPK,0.238

row,Variant,enrichment factor
1,PPK,0.227
2,QPK,0.165
3,RPK,0.14
4,SPK,0.149
5,CPK,0.0832
6,TPK,0.102
7,VPK,0.193
8,WPK,0.245
9,YPK,0.144
10,DPL,0.203
11,EPL,0.686
12,FPL,2.06
13,GPL,0.492
14,APL,2.15
15,HPL,1.62
16,IPL,1.58
17,KPL,1.02
18,LPL,1.52
19,MPL,1.69
20,NPL,1.63
21,PPL,0.673
22,QPL,2.03
23,RPL,1.68
24,SPL,2

row,Variant,enrichment factor
1,CPL,1.41
2,TPL,1.82
3,VPL,1.9
4,WPL,1.05
5,YPL,2.44
6,DPM,1.5
7,EPM,1.61
8,FPM,1.56
9,GPM,1.97
10,APM,1.6
11,HPM,1.67
12,IPM,2.32
13,KPM,1.97
14,LPM,2.06
15,MPM,1.33
16,NPM,1.47
17,PPM,1.55
18,QPM,1.99
19,RPM,2.43
20,SPM,1.46
21,CPM,1.31
22,TPM,1.93
23,VPM,2.77
